Measurements taken from the supplement of paper PMC3334620.
In all, about 33,000 sequences were measured (“E-score (-0.5 to 0.5)”: median about -0.035, highest 2% from about 0.35 on). Some of the results follow.

Molecular target: T1, Pdr3 (UniProt P33200)
T1 sequence: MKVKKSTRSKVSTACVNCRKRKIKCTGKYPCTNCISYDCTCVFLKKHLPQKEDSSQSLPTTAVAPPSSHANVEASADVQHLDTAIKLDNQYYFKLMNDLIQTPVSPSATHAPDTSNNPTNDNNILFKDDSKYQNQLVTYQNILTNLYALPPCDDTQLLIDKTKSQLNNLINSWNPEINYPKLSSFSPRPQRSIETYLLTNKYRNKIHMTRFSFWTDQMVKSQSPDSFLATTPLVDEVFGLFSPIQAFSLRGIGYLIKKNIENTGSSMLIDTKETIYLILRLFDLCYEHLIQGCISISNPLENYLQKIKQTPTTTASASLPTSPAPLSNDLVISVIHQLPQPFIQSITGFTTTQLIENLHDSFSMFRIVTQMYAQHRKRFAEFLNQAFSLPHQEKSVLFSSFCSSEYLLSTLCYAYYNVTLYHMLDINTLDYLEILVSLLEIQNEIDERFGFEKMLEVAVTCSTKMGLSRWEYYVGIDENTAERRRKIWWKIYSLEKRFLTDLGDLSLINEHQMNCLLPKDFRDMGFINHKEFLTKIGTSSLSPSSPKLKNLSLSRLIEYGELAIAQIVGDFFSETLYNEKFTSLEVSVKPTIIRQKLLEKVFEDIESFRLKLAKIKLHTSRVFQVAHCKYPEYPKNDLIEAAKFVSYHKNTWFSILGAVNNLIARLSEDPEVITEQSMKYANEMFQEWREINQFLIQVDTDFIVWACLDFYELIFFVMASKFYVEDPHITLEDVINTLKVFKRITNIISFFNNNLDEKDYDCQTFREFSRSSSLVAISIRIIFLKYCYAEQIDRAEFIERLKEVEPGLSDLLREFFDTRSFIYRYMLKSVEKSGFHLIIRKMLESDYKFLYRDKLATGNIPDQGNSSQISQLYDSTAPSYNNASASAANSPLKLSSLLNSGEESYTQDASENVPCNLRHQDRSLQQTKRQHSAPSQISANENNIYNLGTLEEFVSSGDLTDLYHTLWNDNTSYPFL
Assay: PBM E-score (8-mer binding enrichment) (E-score (-0.5 to 0.5)); higher = stronger / more preferred TF binding; most listed sequences are background and not binding sites
Conditions: protein concentration: 200 nM; construct: GST-full length
In short: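 Using PURExpress in vitro transcription/translation, GST-tagged yeast transcription factors were made in full-length or DNA-binding-domain form. These were applied at about 100-200 nM to double-stranded universal all-10-mer Agilent arrays, and bound protein was detected with fluorescent anti-GST. Scans were normalised with masliner before the Universal PBM Analysis Suite assigned E-scores to ungapped eight-base words pooled with their reverse complements.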

Sequence	PBM E-score
ATGCCCTG	-0.0979
CTATCTCA	0.0461
AGACTTTC	-0.174
AAACCCCC	-0.128
ACATAATC	0.0294
GTGTACTA	-0.162
GTCGGAAA	0.416
ATTCTACG	-0.0335
GCGCCGCC	0.299
GTAAGGTA	-0.132
ACAGCGCC	0.127
AAGACCTA	0.0684
CTCGGGTA	0.111
ACAGGTCA	-0.0795
CGCCCGTC	0.338
AATACGGG	-0.0463
GGTCTATA	-0.151
GTTGGGCA	-0.0124
CTTGCCAC	0.0154
AGTGCTTA	-0.154
AGTGGGCC	-0.241
GGTATTGA	0.0445
GCCTTTAC	-0.106
AATACACT	-0.127
AAGTAGGT	-0.15

Sequence	PBM E-score
GTGTAAAA	-0.167
CTCCTATC	-0.091
ATGCGGGA	0.293
ATTTTAAA	0.128
ACGTTTTA	-0.16
GACTATAC	-0.028
TACCTTAA	-0.0861
CAGTCAGA	-0.208
CCGGGGGC	0.235
ACAGAGCT	-0.292
CCGTATAA	0.223
AAATCGTT	-0.0434
CCCTGCCA	-0.017
CCAGGCAG	-0.129
ACAAATAG	0.0222
CACCCCAA	0.134
CCCGTTTA	0.151
GGACCTCC	0.103
ATTCTCCC	-0.00424
CAGTCTGA	-0.142
CGGTCGAA	0.0584
GCATTAGC	-0.0807
ATTAAGAA	0.00252
GGGTACCA	-0.22
ATCGCCTA	0.119

Sequence	PBM E-score
ACAGAGTA	-0.232
GAGAAATA	0.0887
AATAAGGC	-0.236
ATCCAGAA	-0.0661
CACTTCAC	-0.0435
AGCGCAAC	0.127
CGGATTGC	0.31
CTTTGAAC	-0.174
AAGTCAAG	-0.166
ATGTTCTG	-0.095
CCATTCCG	0.425
TCAAACAA	-0.11
GCGTGTTA	-0.33
CCACTTTA	-0.00202
AAACCGAA	-0.0124
CCAAATTA	-0.0438
CCCTAACG	-0.1
GTTGCTTA	-0.165
AACTTTGC	0.03
CGAGTTTA	0.0684
AACATCCG	0.341
AAAGTGCC	-0.142
CATTGTTC	0.133
GCTATTGA	-0.16
AATAGCCG	0.181

Sequence	PBM E-score
ACTTCATA	-0.0314
ACAGTGCA	0.00423
CACGGATA	0.373
ACACATAT	-0.0796
CACTAAGG	-0.0887
CTGAGGTA	0.0809
CAATGACC	-0.229
GCGTGATA	-0.0226
AATTATAC	0.102
AAAAGAGA	-0.184
ACGGTAGA	-0.0787
AGACAACG	0.164
CGGATGAG	0.304
TCAGCTGA	0.0232
ACTTTGCG	-0.0278
ATGAGCAG	-0.167
ACCATCCG	0.268
ATGCCGGG	0.245
CCTACACA	-0.00032
ACCCATCG	0.0706
CACAAGTA	0.0141
AACCGCTC	-0.0195
AGAGATCG	-0.137
AGAAGCAA	-0.0392
AGGATTGG	-0.151

Sequence	PBM E-score
CCCAACCG	0.00518
CCGAGGAA	0.271
ACGTGTCT	-0.103
AATCCACT	-0.089
GCCTCGCA	-0.0192
CATGTAAG	-0.196
CTAAGGCC	-0.141
GGAGAGTA	0.129
TCTTAGAA	-0.00746
CACTTATA	0.00883
ACTGCAAG	-0.164
CTGCCAGC	-0.152
CCAGAGTA	-0.0369
ACAATACG	0.0898
CGACTTCA	-0.0565
ACACACTG	-0.134
ACCATCGC	0.0596
ACTTTTGA	0.0691
AGTTCTAA	0.00941
ACCACGCA	-0.284
CATACGCC	-0.0998
AGTGACTC	-0.193
GAGTTGGC	0.115
CCGGAAGA	0.403
AGTAAGGC	-0.0279

Sequence	PBM E-score
AAACCATC	0.0527
AACCGACG	0.238
CCCCAATA	-0.21
GTTCGATA	0.0982
TAAGTCGA	-0.244
ATCCGGGC	0.386
AATCCCCG	0.296
AGGCCCCC	-0.151
CTGGATAA	0.0177
GCTTTTTA	-0.048
ACTTATGA	-0.114
ACGTGAGA	-0.254
AAAGGTCC	0.0345
AGAGAGTG	-0.209
ACCTTGGA	-0.0875
CTAGTGTC	0.0125
AGGACGTG	-0.15
GTTCTCGA	-0.0688
AATTAATT	-0.123
GAAGGTCC	0.13
GGTCAATA	-0.124
ATGGTTCG	0.0613
CGATGGGA	0.173
CCAGGGAA	-0.132
GTGTCACA	0.0846

Sequence	PBM E-score
ACGTTACC	-0.0343
TGGGTTAA	-0.123
ACACCTGG	-0.159
CGTTGATA	0.12
GGGCCAAA	0.106
GTTCCAGA	-0.0517
ATTCAATC	0.17
GCAGCAGC	-0.0415
ACGTACAG	-0.229
ACGACGCG	0.0646
CACTGTGG	-0.133
GCACATCA	-0.0746
TAGACTAA	-0.29
AGGAGATG	-0.095
GGTGCGTA	-0.00871
AAAATTTG	-0.248
GGAGCACA	0.0257
AGCGCTCC	0.035
ATGGTGTA	-0.266
CCACAGCA	-0.0435
CATCTTGC	-0.0252
ACCGCAAT	0.158
